Measurements from the supplement of paper PMC4967469.
IC50 is the fitted dose that halves viability relative to control wells, and lower means more sensitive; a limit (>, <) means that the fit lies beyond the doses tested. The AUC spans the tested range (256-fold, ending at the top dose) of the same fit; the more sensitive the line, the further below 1. For some of these results: An inferred top dose was derived from the fitted curves, not read from the paper.

Assays:
Test in all cases: Viability of human cancer cell lines after 72 h of drug (GDSC screen)
XAV 939 = compound: Oc1nc(-c2ccc(C(F)(F)F)cc2)nc2c1CSCC2 [XAV 939]; settings: top dose 5 µM; top dose inferred
Procedure: (§1)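 Human cancer cell lines in 384-well plates, medium with 10% serum, drug for 72 h over a 256-fold dose range (nine 2-fold or five 4-fold steps up to the top dose). Adherent lines were fixed and stained with the nucleic acid dye Syto60, suspension lines read with resazurin; signal relative to control wells, capped at 0 and 100%. One two-parameter sigmoid per drug and line, fitted in a mixed model over all curves with the slope shared within a line.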

BMS-345541 = compound: Cc1ccc2nc(NCCN)c3ncc(C)n3c2c1 [BMS-345541]; settings: top dose 16 µM
Procedure: as §1

NPK76-II-72-1 = compound: COc1cc(C(=O)NC2CCN(C)CC2)ccc1Nc1ncc2c(n1)N(C1CCCC1)C(C)CC(=O)N2C [NPK76-II-72-1]; settings: top dose 10.24 µM; top dose inferred
Procedure: as §1

YK 4-279 = compound: COc1ccc(C(=O)CC2(O)C(=O)Nc3c(Cl)ccc(Cl)c32)cc1 [YK 4-279]; settings: top dose 10 µM
Procedure: as §1

AZD7762 = compound: NC(=O)Nc1cc(-c2cccc(F)c2)sc1C(=O)N[C@H]1CCCNC1 [AZD7762]; settings: top dose 2 µM
Procedure: as §1

GSK-650394 = compound: O=C(O)c1ccc(-c2c[nH]c3ncc(-c4ccccc4)cc23)cc1C1CCCC1 [GSK-650394]; settings: top dose 16 µM; top dose inferred
Procedure: as §1

Etoposide = compound: COc1cc([C@@H]2c3cc4c(cc3[C@@H](O[C@@H]3O[C@@H]5CO[C@@H](C)O[C@H]5[C@H](O)[C@H]3O)[C@H]3COC(=O)[C@H]23)OCO4)cc(OC)c1O [Etoposide]; settings: top dose 16 µM
Procedure: as §1

Bexarotene = compound: C=C(c1ccc(C(=O)O)cc1)c1cc2c(cc1C)C(C)(C)CCC2(C)C [Bexarotene]; settings: top dose 8 µM
Procedure: as §1

Row | Cell Line | AUC (XAV 939) | IC50 (XAV 939) [µM] | AUC (BMS-345541) | IC50 (BMS-345541) [µM] | AUC (NPK76-II-72-1) | IC50 (NPK76-II-72-1) [µM] | AUC (YK 4-279) | IC50 (YK 4-279) [µM] | AUC (AZD7762) | IC50 (AZD7762) [µM] | AUC (GSK-650394) | IC50 (GSK-650394) [µM] | AUC (Etoposide) | IC50 (Etoposide) [µM] | AUC (Bexarotene) | IC50 (Bexarotene) [µM]
1 | DK-MG (glioma, adherent) | 0.922 | > 5 | 0.972 | > 16 | 0.935 | > 10.2 | 0.862 | > 10 | 0.888 | > 2 | 0.969 | > 16 | 0.955 | > 16 | – | –
2 | Daoy (medulloblastoma, adherent) | 0.967 | > 5 | 0.886 | 14.8 | 0.741 | 2.89 | 0.576 | 0.987 | 0.708 | – | – | – | 0.328 | 0.35 | 0.792 | 3.24
3 | EW-13 (Ewing sarcoma, suspension) | 0.981 | > 5 | 0.636 | 2.47 | 0.591 | 1.17 | 0.981 | > 10 | 0.951 | > 2 | 0.665 | – | 0.213 | 0.129 | – | –
4 | G-MEL (melanoma, adherent) | 0.984 | > 5 | 0.881 | > 16 | 0.975 | > 10.2 | 0.521 | 0.714 | 0.48 | 0.11 | 0.681 | 3.18 | 0.754 | 5.31 | – | –
5 | GA-10 (Burkitt lymphoma, suspension) | 0.987 | > 5 | – | – | – | – | 0.77 | 3.23 | 0.536 | 0.154 | – | – | 0.206 | 0.164 | – | –
6 | H4 (glioma, adherent) | 0.983 | > 5 | 0.917 | > 16 | 0.947 | > 10.2 | 0.546 | 0.832 | 0.609 | 0.248 | – | – | 0.353 | 0.394 | 0.961 | > 8
7 | H2373 (mesothelioma, adherent) | – | – | 0.917 | > 16 | 0.976 | > 10.2 | 0.906 | > 10 | 0.719 | 0.622 | 0.932 | > 16 | 0.812 | 11.4 | – | –
8 | HCC1419 (breast, adherent) | 0.98 | > 5 | 0.929 | > 16 | 0.971 | > 10.2 | 0.938 | > 10 | 0.976 | > 2 | 0.982 | > 16 | 0.978 | > 16 | – | –
9 | Hs746T (stomach, adherent) | 0.968 | > 5 | 0.776 | 8.79 | 0.905 | > 10.2 | 0.799 | 6.82 | 0.607 | 0.274 | – | – | 0.978 | > 16 | – | –
10 | KARPAS-231 (B-cell leukaemia, suspension) | 0.991 | > 5 | – | – | – | – | 0.75 | 2.63 | 0.224 | 0.0252 | 0.704 | 3.21 | 0.358 | 0.447 | – | –
11 | KASUMI-1 (acute myeloid leukaemia, suspension) | 0.917 | > 5 | 0.635 | 2.36 | – | – | 0.723 | 2.7 | 0.057 | < 0.00781 | – | – | 0.546 | 1.34 | – | –
12 | KP-1N (pancreas, adherent) | 0.984 | > 5 | 0.71 | 4.06 | – | – | 0.766 | 3.85 | 0.972 | > 2 | 0.836 | 11.3 | 0.637 | 2.44 | – | –
13 | KP-2 (pancreas, adherent) | 0.874 | > 5 | 0.879 | > 16 | 0.952 | > 10.2 | 0.795 | 5.07 | 0.838 | 1.51 | 0.957 | > 16 | 0.796 | 8.2 | – | –
14 | KP-3 (pancreas, adherent) | 0.95 | > 5 | 0.888 | > 16 | 0.93 | > 10.2 | 0.865 | > 10 | 0.706 | 0.538 | 0.931 | > 16 | 0.932 | > 16 | – | –
15 | MG-63 (osteosarcoma, adherent) | – | – | 0.984 | > 16 | 0.984 | > 10.2 | 0.762 | 4.11 | 0.892 | > 2 | 0.759 | 6.45 | 0.512 | 1.09 | – | –
16 | OVCAR-3 (ovary, adherent) | 0.951 | > 5 | 0.965 | > 16 | 0.986 | > 10.2 | 0.613 | 1.32 | – | – | 0.934 | > 16 | 0.886 | > 16 | 0.929 | > 8
17 | PANC-08-13 (pancreas, adherent) | 0.926 | > 5 | 0.911 | > 16 | 0.904 | > 10.2 | 0.832 | 9 | 0.746 | 0.792 | 0.983 | > 16 | 0.949 | > 16 | – | –
18 | PANC-10-05 (pancreas, adherent) | 0.901 | > 5 | 0.892 | > 16 | 0.939 | > 10.2 | 0.837 | 9.6 | – | – | 0.788 | 9.26 | 0.619 | 2.34 | 0.937 | > 8
19 | PCI-38 (head and neck, adherent) | 0.91 | > 5 | 0.838 | 10.9 | 0.883 | > 10.2 | 0.623 | 1.36 | – | – | 0.985 | > 16 | 0.942 | > 16 | 0.983 | > 8
20 | PL18 (pancreas, adherent) | 0.942 | > 5 | 0.885 | > 16 | 0.971 | > 10.2 | 0.961 | > 10 | – | – | 0.882 | > 16 | 0.43 | 0.646 | 0.941 | > 8
